Not every detail of the peptide structures is certain; ends, links or a residue may be inferred. Residues, ends and D or L forms follow the SMILES beside them.
Molecular target: T1, DNA-PK (Homo sapiens, UniProt P78527)
T1 construct: DNA-PK was purified from HeLa cells; endogenous in cells; host or cells: HeLa S3 cells; the endogenous enzyme was purified in house by chromatography
Assay: Phosphorylation of synthetic peptides in crude cell extracts (HeLa, T98G)
Format: biochemical
Conditions: for PO4 incorporated + DNA: + calf thymus DNA 10 μg/ml; for PO4 incorporated + DNA / PO4 incorporated − DNA: peptide 200 μM, 10 min 30° C.; for PO4 incorporated − DNA: without DNA
Experimental: To examine cells for DNA-PK content, extracts from HeLa, T98G human glioblastoma, and mouse L 929 cells were prepared by freeze-thaw lysis of cells harvested from five nearly confluent 9-cm-diameter plates as described in Example 1 and by Lees-Miller, et al. J. Biol. Chem., 264:2431-2437 (1989). T98G (ATCC CRL 1690) is a human glioblastoma cell line; L-929 (ATCC CCL 1) was derived from connective tissue of the NCTC 2071 mouse. Based on earlier work with natural protein substrates, it was expected that extracts of HeLa and T98G cells would contain a significant amount of DNA-PK activity while the extracts of mouse L 929 would contain little, if any, DNA-PK activity. Lysates in low-salt buffer were centrifuged at 10,000×g, to give a supernatant fraction (designated S10) and pellets (designated P10). The pellets were washed by resuspension in a high salt buffer (0.5 M KCl, 25 mM N-2-hydroxyethylpiperazine-N′-2-ethanesulfonic acid (HEPES; pH 7.5), 10 mM MgCl2, 1 mM dithiothreitol) and were sonicated. The sonicated suspension was centrifuged at 10,000×g for 10 min to give a second supernatant fraction (designated P10S), which was diluted with buffer lacking KCl to give a volume equal to that of the original supernatant (S10). Protein concentrations, determined using the Bio-Rad dye-binding assay, were as follows: HeLa S10, 3 mg/ml; HeLa P10S, 1 mg/ml; T98G S10, 3.5 mg/ml;,T98G P10S, 1 mg/ml; L-929 S10, 1 mg/ml; and L-929 P10S, 0.3 mg/ml. These extracts were assayed for the ability to phosphorylate (SEQ ID NOS: 11 and 20) with and without added calf thymus DNA.

Compound: CC(C)C[C@H](NC(=O)[C@H](CC(=O)O)NC(=O)[C@H](C)NC(=O)[C@H](Cc1ccccc1)NC(=O)[C@H](C)NC(=O)[C@H](CCC(=O)O)NC(=O)[C@H](CCC(N)=O)NC(=O)[C@H](CO)NC(=O)[C@H](CC(C)C)NC(=O)[C@@H]1CCCN1C(=O)[C@@H]1CCCN1C(=O)[C@@H](N)CCC(=O)O)C(=O)N[C@@H](Cc1c[nH]c2ccccc12)C(=O)N[C@@H](CCCCN)C(=O)N[C@@H](CCCCN)C(=O)O [SEQ ID NO: 11] (H-EPPLSQEAFADLWKK-OH)
- PO4 incorporated + DNA (HeLa, P10S): 28.9 nmol/min/ml of extract
- PO4 incorporated − DNA (HeLa, P10S): 6.5 nmol/min/ml of extract
- PO4 incorporated + DNA (HeLa, S10): 33.8 nmol/min/ml of extract
- PO4 incorporated − DNA (HeLa, S10): 0.8 nmol/min/ml of extract
- PO4 incorporated + DNA (T98G, P10S): 15.0 nmol/min/ml of extract
- PO4 incorporated − DNA (T98G, P10S): 1.2 nmol/min/ml of extract
- PO4 incorporated + DNA (T98G, S10): 22.6 nmol/min/ml of extract
- PO4 incorporated − DNA (T98G, S10): 0.2 nmol/min/ml of extract
- rate of phosphorylation relative to assay background (extracts of the two human cell lines (HeLa, T98G)): 200-300 times
